Read-outs that look alike come from different tables or passages of the source.
Tests used:
RS4;11 cells = test: cells; conditions: Homo sapiens, RS4-11, 48 h
Molt-4 cells = test: cells; conditions: Homo sapiens, MOLT-4, read-out: Cellular activity (IC50, nM) Molt-4
[1] = read-out: Cellular activity (IC50, nM) RS4, 11
[2] = read-out: Cellular activity (IC50, nM) RS4;11

Question: How did the IC50 (RS4;11 cells; [1]) turn out when `CC1(C)CCN(c2ccc(-c3ccc(C(=O)NS(=O)(=O)c4ccc(NCC5CCOCC5)c([N+](=O)[O-])c4)c(Oc4cnc5[nH]ccc5c4)c3)cc2)C1c1ccccc1C1CC1` (stereo not shown) [Example A77, 3-((1H-pyrrolo[2,3-b]pyridin-5-yl)oxy)-4′-(2-(2-cyclopropylphenyl)-3,3-dimethylpyrrolidin-1-yl)-N-((3-nitro-4-(((tetrahydro-2H-pyran-4-yl)methyl)amino)phenyl)sulfonyl)-[1,1′-biphenyl]-4-carboxamide] was run?
Answer: Its IC50 is 55 nM.

Question: What about the IC50 (Molt-4 cells) of the same molecule?
Answer: The IC50 was 1860 nM.

Question: How did the IC50 (RS4;11 cells; [2]) turn out when `O=C(NS(=O)(=O)c1ccc(NCCN2CCOCC2)c([N+](=O)[O-])c1)c1ccc(-c2ccc(N3CCC[C@@H]3c3ccccc3C3CC3)cc2)cc1Oc1cnc2[nH]ccc2c1` [Example G130, (R)-3-((1H-pyrrolo[2,3-b]pyridin-5-yl)oxy)-4′-(2-(2-cyclopropylphenyl)pyrrolidin-1-yl)-N-((4-((2-morpholinoethyl)amino)-3-nitrophenyl)sulfonyl)-[1,1′-biphenyl]-4-carboxamide] was run?
Answer: The IC50 was 82 nM.

Question: What about the IC50 (Molt-4 cells) of the same molecule?
Answer: The IC50 was 2340 nM.

Question: What does the source list for `O=C(NS(=O)(=O)c1ccc(NCC2CCOCC2)c([N+](=O)[O-])c1)c1ccc(N2CCC3(CC2)CC(N2CCCC2c2cc(Cl)ccc2C2CC2)C3)cc1Oc1cnc2[nH]ccc2c1` (stereo not shown) [Example F73, 2-((1H-pyrrolo[2,3-b]pyridin-5-yl)oxy)-4-(2-(2-(5-chloro-2-cyclopropylphenyl)pyrrolidin-1-yl)-7-azaspiro[3.5]nonan-7-yl)-N -((3-nitro-4-(((tetrahydro-2H -pyran-4-yl)methyl)amino)phenyl)sulfonyl)benzamide]?
Answer: IC50 (RS4;11 cells; [2]): 63 nM; IC50 (Molt-4 cells): > 10000 nM

Question: What does the source list for `CN1CC=C(c2ccc(Cl)cc2C2CCCN2c2ccc(-c3ccc(C(=O)NS(=O)(=O)c4ccc(NCC5CCOCC5)c([N+](=O)[O-])c4)c(Oc4cnc5[nH]ccc5c4)c3)cc2)CC1` (stereo not shown) [Example A140, 3-((1H-pyrrolo[2,3-b]pyridin-5-yl)oxy)-4′-(2-(5-chloro-2-(1-methyl-1,2,3,6-tetrahydropyridin-4-yl)phenyl)pyrrolidin-1-yl)-N-((3-nitro-4-(((tetrahydro-2H-pyran-4-yl)methyl)amino)phenyl)sulfonyl)-[1,1′-biphenyl]-4-carboxamide]?
Answer: IC50 (RS4;11 cells; [2]): 24 nM; IC50 (Molt-4 cells): > 10000 nM

Question: With `C#CC1CCN(C2CC=C(c3ccc(C(=O)NS(=O)(=O)c4ccc(NCC5CCOCC5)c([N+](=O)[O-])c4)c(Oc4cnc5[nH]ccc5c4)c3)CC2)C1c1ccccc1C1CC1` (stereo not shown) [Example C164, 3-((1H-pyrrolo[2,3-b]pyridin-5-yl)oxy)-4′-(2-(2-cyclopropylphenyl)-3-ethynylpyrrolidin-1-yl)-N-((3-nitro-4-(((tetrahydro-2H-pyran-4-yl)methyl)amino)phenyl)sulfonyl)-2′,3′,4′,5′-tetrahydro-[1,1′-biphenyl]-4-carboxamide] as the molecule, how does the IC50 (RS4;11 cells; [1]) read?
Answer: The IC50 was 141 nM.

Question: What about the IC50 (Molt-4 cells) of the same molecule?
Answer: Its IC50 is 4140 nM.

Question: How did the IC50 (RS4;11 cells; [2]) turn out when `CN1CCC(c2ccccc2[C@H]2CCCN2c2ccc(-c3ccc(C(=O)NS(=O)(=O)c4ccc(NCC5CCOCC5)c([N+](=O)[O-])c4)c(Oc4cnc5[nH]ccc5c4)c3)cc2)CC1` [Example A100, (R)-3-((1H-pyrrolo[2,3-b]pyridin-5-yl)oxy)-4′-(2-(2-(1-methylpiperidin-4-yl)phenyl)pyrrolidin-1-yl)-N-((3-nitro-4-(((tetrahydro-2H-pyran-4-yl)methyl)amino)phenyl)sulfonyl)-[1,1′-biphenyl]-4-carboxamide] was run?
Answer: Its IC50 is 4.6 nM.

Question: What about the IC50 (Molt-4 cells) of the same molecule?
Answer: The IC50 was greater than 10000 nM.

Question: Which IC50 (RS4;11 cells; [1]) does the source give for `O=C(NS(=O)(=O)c1ccc(NCC2CCOCC2)c([N+](=O)[O-])c1)c1ccc(C2=CCC(N3CCCC3c3c(F)cccc3C3CC3)CC2)cc1Oc1cnc2[nH]ccc2c1` (stereo not shown) [Example C55, 3-((1H-pyrrolo[2,3-b]pyridin-5-yl)oxy)-4′-(2-(2-cyclopropyl-6-fluorophenyl)pyrrolidin-1-yl)-N-((3-nitro-4-(((tetrahydro-2H-pyran-4-yl)methyl)amino)phenyl)sulfonyl)-2′,3′,4′,5′-tetrahydro-[1,1′-biphenyl]-4-carboxamide] here?
Answer: The IC50 was 86 nM.

Question: What about the IC50 (Molt-4 cells) of the same molecule?
Answer: The IC50 was 5300 nM.

Question: Which results are given for `O=C(NS(=O)(=O)c1ccc(NCC2(F)CCN(C3COC3)CC2)c([N+](=O)[O-])c1)c1ccc(-c2ccc(N3CCC[C@@H]3c3ccccc3C3CC3)cc2)cc1Oc1cnc2[nH]ccc2c1` [Example G98, (R)-3-((1H-pyrrolo[2,3-b]pyridin-5-yl)oxy)-4′-(2-(2-cyclopropylphenyl)pyrrolidin-1-yl)-N-((4-(((4-fluoro-1-(oxetan-3-yl)piperidin-4-yl)methyl)amino)-3-nitrophenyl)sulfonyl)-[1,1′-biphenyl]-4-carboxamide]?
Answer: IC50 (RS4;11 cells; [1]): 5.6 nM; IC50 (Molt-4 cells): 1350 nM

Question: Which results are given for `CN(C)CCCc1ccccc1C1CCCN1c1ccc(-c2ccc(C(=O)NS(=O)(=O)c3ccc(NCC4CCOCC4)c([N+](=O)[O-])c3)c(Oc3cnc4[nH]ccc4c3)c2)cc1` (stereo not shown) [Example A131, 3-((1H-pyrrolo[2,3-b]pyridin-5-yl)oxy)-4′-(2-(2-(3-(dimethylamino)propyl)phenyl)pyrrolidin-1-yl)-N-((3-nitro-4-(((tetrahydro-2H-pyran-4-yl)methyl)amino)phenyl)sulfonyl)-[1,1′-biphenyl]-4-carboxamide]?
Answer: IC50 (RS4;11 cells; [2]): 16 nM; IC50 (Molt-4 cells): 1350 nM

Question: What does the source list for `O=C(NS(=O)(=O)c1ccc(NCC2CCOCC2)c([N+](=O)[O-])c1)c1ccc(C2=CCC(N3CC=CC3c3ccccc3C3CC3)CC2)cc1Oc1cnc2[nH]ccc2c1` (stereo not shown) [Example C81, 3-((1H-pyrrolo[2,3-b]pyridin-5-yl)oxy)-4′-(2-(2-cyclopropylphenyl)-2,5-dihydro-1H-pyrrol-1-yl)-N-((3-nitro-4-(((tetrahydro-2H-pyran-4-yl)methyl)amino)phenyl)sulfonyl)-2′,3′,4′,5′-tetrahydro-[1,1′-biphenyl]-4-carboxamide]?
Answer: IC50 (RS4;11 cells; [1]): 410 nM; IC50 (Molt-4 cells): > 10000 nM

Question: `O=C(NS(=O)(=O)c1ccc(NCC2CCOCC2)c([N+](=O)[O-])c1)c1ccc(C2=CCC(N3CCCC3c3ccccc3C3=CCNCC3)CC2)cc1Oc1cnc2[nH]ccc2c1` (stereo not shown) [Example C195, 3-((1H-pyrrolo[2,3-b]pyridin-5-yl)oxy)-N-((3-nitro-4-(((tetrahydro-2H-pyran-4-yl)methyl)amino)phenyl)sulfonyl)-4′-(2-(2-(1,2,3,6-tetrahydropyridin-4-yl)phenyl)pyrrolidin-1-yl)-2′,3′,4′,5′-tetrahydro-[1,1′-biphenyl]-4-carboxamide] was tested. Which IC50 (RS4;11 cells; [1]) did it give?
Answer: The IC50 was greater than 10000 nM.

Question: What about the IC50 (Molt-4 cells) of the same molecule?
Answer: The IC50 was greater than 10000 nM.

Question: Which results are given for `CCCCC1C2CCCC2CN1C1CC=C(c2ccc(C(=O)NS(=O)(=O)c3ccc(NCC4CCOCC4)c([N+](=O)[O-])c3)c(Oc3cnc4[nH]ccc4c3)c2)CC1` (stereo not shown) [Example C193, 3-((1H-pyrrolo[2,3-b]pyridin-5-yl)oxy)-4′-(1-butylhexahydrocyclopenta[c]pyrrol-2(1H)-yl)-N-((3-nitro-4-(((tetrahydro-2H-pyran-4-yl)methyl)amino)phenyl)sulfonyl)-2′,3′,4′,5′-tetrahydro-[1,1′-biphenyl]-4-carboxamide]?
Answer: IC50 (RS4;11 cells; [1]): 159 nM; IC50 (Molt-4 cells): 3950 nM

Question: Which IC50 (RS4;11 cells; [1]) does the source give for `O=C(NS(=O)(=O)c1ccc(OCC2(F)CCOCC2)c([N+](=O)[O-])c1)c1ccc(-c2ccc(N3CCCC3c3ccccc3Cl)cc2)cc1Oc1cnc2[nH]ccc2c1` (stereo not shown) [Example G1, 3-((1H-pyrrolo[2,3-b]pyridin-5-yl)oxy)-4′-(2-(2-chlorophenyl)pyrrolidin-1-yl)-N-((4-((4-fluorotetrahydro-2H-pyran-4-yl)methoxy)-3-nitrophenyl)sulfonyl)-[1,1′-biphenyl]-4-carboxamide] here?
Answer: The IC50 was 88 nM.

Question: What about the IC50 (Molt-4 cells) of the same molecule?
Answer: Its IC50 is 6770 nM.

Question: For `CS(C)(=O)=NC1CCC(CNc2ccc(S(=O)(=O)NC(=O)c3ccc(N4CCC5(CC4)CC(N4CCC[C@H]4c4ccccc4C4CC4)C5)cc3Oc3cnc4[nH]ccc4c3)cc2[N+](=O)[O-])CC1` (single isomer, unassigned) [Example F97, 2-((1H-pyrrolo[2,3-b]pyridin-5-yl)oxy)-4-(2-((S)-2-(2-cyclopropylphenyl)pyrrolidin-1-yl)-7-azaspiro[3.5]nonan-7-yl)-N-((4-(((((1s,4s) or (1r,4r))-4-((dimethyl(oxo)-16-sulfaneylidene)amino)cyclohexyl)methyl)amino)-3-nitrophenyl)sulfonyl)benzamide], which IC50 (RS4;11 cells; [2]) is on record?
Answer: The IC50 was 1 nM.

Question: What about the IC50 (Molt-4 cells) of the same molecule?
Answer: Its IC50 is greater than 10000 nM.

Question: For `O=C(NS(=O)(=O)c1ccc(NC[C@@H]2COCCO2)c([N+](=O)[O-])c1)c1ccc(N2CC3(CC(N4CCC[C@H]4c4ccccc4C4CC4)C3)C2)cc1Oc1cnc2[nH]ccc2c1` [Example F108, N-((4-((((R)-1,4-dioxan-2-yl)methyl)amino)-3-nitrophenyl)sulfonyl)-2-((1H-pyrrolo[2,3-b]pyridin-5-yl)oxy)-4-(6-((S)-2-(2-cyclopropylphenyl)pyrrolidin-1-yl)-2-azaspiro[3.3]heptan-2-yl)benzamide], which IC50 (RS4;11 cells; [2]) is on record?
Answer: The IC50 was 1.1 nM.

Question: What about the IC50 (Molt-4 cells) of the same molecule?
Answer: Its IC50 is 1190 nM.

Question: `CC1CC(c2ccccc2C2CC2)N(C2CC3(CCN(c4ccc(C(=O)NS(=O)(=O)c5ccc(NCC6CCOCC6)c([N+](=O)[O-])c5)c(Oc5cnc6[nH]ccc6c5)c4)CC3)C2)C1` (stereo not shown) [Example F78, 2-((1H-pyrrolo[2,3-b]pyridin-5-yl)oxy)-4-(2-(2-(2-cyclopropylphenyl)-4-methylpyrrolidin-1-yl)-7-azaspiro[3.5]nonan-7-yl)-N-((3-nitro-4-(((tetrahydro-2H-pyran-4-yl)methyl)amino)phenyl)sulfonyl)benzamide] was tested. Which IC50 (RS4;11 cells; [2]) did it give?
Answer: Its IC50 is 1.5 nM.

Question: And the IC50 (Molt-4 cells)?
Answer: Its IC50 is 3570 nM.

Question: For `O=C(NS(=O)(=O)c1ccc(NCC2CCC(O)(C(F)(F)F)CC2)c([N+](=O)[O-])c1)c1ccc(N2CCC3(CC2)CC(N2CCC[C@H]2c2ccccc2C2CC2)C3)cc1Oc1cnc2[nH]ccc2c1` (stereo partly drawn) [Example F100, (S)-2-((1H-pyrrolo[2,3-b]pyridin-5-yl)oxy)-4-(2-(2-(2-cyclopropylphenyl)pyrrolidin-1-yl)-7-azaspiro[3.5]nonan-7-yl)-N-((4-(((4-hydroxy-4-(trifluoromethyl)cyclohexyl)methyl)amino)-3-nitrophenyl)sulfonyl)benzamide], which IC50 (RS4;11 cells; [2]) is on record?
Answer: The IC50 was 6.4 nM.

Question: What about the IC50 (Molt-4 cells) of the same molecule?
Answer: Its IC50 is 7030 nM.

From patent publication US11420968B2 (priority 2018, dated 2022)
